# In a collection of fitness landscapes (doi:10.1016/j.celrep.2020.107928):
# Over roughly 81,000 sequences, “one-hybrid fitness for binding parS DNA” has its median near -0.17; the highest 2% begin near 0.51. The list shows a part of the results.
# B1: Caulobacter ParB omega fusion; a variant is named by its letters at X, in order, B8GW30 (parent)
# chain: MESVVVGEPGMSEGRRGLGRGLSALLGEVDAAPAQAPGEQLGGSREAPIEILQRNPDQPRRTFREEDLEDLSNSIREKGVLQPILVRPSPDTAGEYQIVAGERAWRAAQRAGLKTVPIMVRELDDLAVLEIGIIENVQRADLNVLEEALSYKVLMEKFERTQENIAQTIGKSXSHVANXMRLLXLPDEVQSYLVSGELTAXHARAIAAAADPVALAKQIIEGGLSVRETEALARKAPNLSAGKSKGGRPPRVKDTDTQALESDLSSVLGLDVSIDHRGSTGTLTITYATLEQLDDLCNRLTRGI
# Variants of: B1
# Assay: one-hybrid fitness for binding parS DNA (scaled: cognate 1, non-cognate 0); higher = stronger binding
# Conditions: with parS DNA site
# Procedure, shortened: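 Selection: bacterial one-hybrid in E. coli USO, HIS3 reporter with the site 19 bp from the promoter, 48 hours at 37°C on M9-minus-histidine plus 0.1 mM IPTG and 5 mM 3-AT. Libraries were Caulobacter ParB with four randomised specificity codons, sequenced on Illumina before and after selection. Fitness is the rescaled log change in variant-to-wild-type read ratio, anchored to the cognate and non-cognate sites.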
row,Variant,one-hybrid fitness for binding parS DNA
1,KLVS,≤ 0.2
2,PDKY,≤ 0.2
3,HRNF,≤ 0.2
4,TNAV,≤ 0.2
5,PCMS,≤ 0.2
6,DYYN,≤ 0.2
7,SKIK,≤ 0.2
8,HDPP,≤ 0.2
9,GLKA,≤ 0.2
10,VQTR,≤ 0.2
11,SAAW,≤ 0.2
12,RFSW,0.247
13,RNRD,≤ 0.2
14,CITN,≤ 0.2
15,PYGV,≤ 0.2
16,DVNT,≤ 0.2
17,TRNM,≤ 0.2
18,NRES,≤ 0.2
19,FGQC,≤ 0.2
20,YRRG,0.271
21,QKAQ,≤ 0.2
22,CIVI,≤ 0.2
23,DRKM,≤ 0.2
24,TLEG,≤ 0.2

row,Variant,one-hybrid fitness for binding parS DNA
1,RADR,≤ 0.2
2,GKHA,≤ 0.2
3,SNSF,≤ 0.2
4,QHTG,≤ 0.2
5,MPAG,≤ 0.2
6,DFHP,≤ 0.2
7,CVVR,≤ 0.2
8,DPTG,≤ 0.2
9,AMGY,≤ 0.2
10,FTAR,≤ 0.2
11,KPAR,≤ 0.2
12,ESAL,≤ 0.2
13,LHAH,≤ 0.2
14,HVPN,≤ 0.2
15,MERR,≤ 0.2
16,LYPP,≤ 0.2
17,CFPV,≤ 0.2
18,QAAN,≤ 0.2
19,ASQL,≤ 0.2
20,ITFS,≤ 0.2
21,YNSN,≤ 0.2
22,RAWY,0.512
23,NYVG,≤ 0.2
24,YWRS,≤ 0.2

row,Variant,one-hybrid fitness for binding parS DNA
1,FLSI,≤ 0.2
2,RTVC,0.929
3,INEC,≤ 0.2
4,RTAG,1
5,TGPS,≤ 0.2
6,THLC,≤ 0.2
7,RWAD,≤ 0.2
8,RAAW,0.233
9,DRIG,≤ 0.2
10,FTES,≤ 0.2
11,LGKM,≤ 0.2
12,WGLI,≤ 0.2
13,PDPM,≤ 0.2
14,YGEM,≤ 0.2
15,AVGC,≤ 0.2
16,RSGC,0.956
17,KPRC,≤ 0.2
18,TRMI,≤ 0.2
19,EWVM,≤ 0.2
20,TQHV,≤ 0.2
21,SYHY,≤ 0.2
22,DWPE,≤ 0.2
23,GSML,≤ 0.2
24,FHYF,≤ 0.2

row,Variant,one-hybrid fitness for binding parS DNA
1,NDMP,≤ 0.2
2,SAMT,≤ 0.2
3,YSPT,≤ 0.2
4,PNDF,≤ 0.2
5,QYYI,≤ 0.2
6,TLHV,≤ 0.2
7,ATTG,≤ 0.2
8,IAQV,≤ 0.2
9,IAVL,≤ 0.2
10,VVAW,≤ 0.2
11,TIPS,≤ 0.2
12,TDYE,≤ 0.2
13,KKLA,≤ 0.2
14,VRRF,≤ 0.2
15,PGAC,≤ 0.2
16,SANV,≤ 0.2
17,LVHS,≤ 0.2
18,HLQI,≤ 0.2
19,YHAG,≤ 0.2
20,KRQL,≤ 0.2
21,AIHP,≤ 0.2
22,YWHS,≤ 0.2
23,LYHI,≤ 0.2
24,TMIH,≤ 0.2

row,Variant,one-hybrid fitness for binding parS DNA
1,DIDG,≤ 0.2
2,DAPP,≤ 0.2
3,FCSA,≤ 0.2
4,WRWW,≤ 0.2
5,WSHR,≤ 0.2
6,CRRQ,≤ 0.2
7,TQTL,≤ 0.2
8,LNLT,≤ 0.2
9,NALM,≤ 0.2
10,ILPV,≤ 0.2
11,NMNW,≤ 0.2
12,TFRL,≤ 0.2
13,NTPS,≤ 0.2
14,FLGG,≤ 0.2
15,HTWC,≤ 0.2
16,LRMK,≤ 0.2
17,LHGW,≤ 0.2
18,IQPT,≤ 0.2
19,TQYF,≤ 0.2
20,PHAM,≤ 0.2
21,HQEF,≤ 0.2
22,SLYN,≤ 0.2
23,GRHW,≤ 0.2
24,VPMR,≤ 0.2

row,Variant,one-hybrid fitness for binding parS DNA
1,SVLL,≤ 0.2
2,HRQG,0.25
3,VTTK,≤ 0.2
4,ANYM,≤ 0.2
5,LKEN,≤ 0.2
6,GCWS,≤ 0.2
7,HPYD,≤ 0.2
8,GLKM,≤ 0.2
9,GHVW,≤ 0.2
10,IFRN,≤ 0.2
11,NHRK,≤ 0.2
12,YHYG,≤ 0.2
13,QKMW,≤ 0.2
14,QSSS,≤ 0.2
15,GTVW,≤ 0.2
16,HIHG,≤ 0.2
17,KKRT,≤ 0.2
18,APTV,≤ 0.2
19,ACSE,≤ 0.2
20,PHSA,≤ 0.2
21,EANL,≤ 0.2
22,MLYE,≤ 0.2
23,LCFG,≤ 0.2
24,MYAV,≤ 0.2

row,Variant,one-hybrid fitness for binding parS DNA
1,PGSL,≤ 0.2
2,SMHE,≤ 0.2
3,RMCC,0.985
4,GSTS,≤ 0.2
5,PKMT,≤ 0.2
6,VCRS,≤ 0.2
7,EVFG,≤ 0.2
8,KYHF,≤ 0.2
9,CHQC,≤ 0.2
10,CMNL,≤ 0.2
11,TVCC,≤ 0.2
12,FMGG,≤ 0.2
13,LKYT,≤ 0.2
14,ATWF,≤ 0.2
15,KAKI,≤ 0.2
16,PKFP,≤ 0.2
17,TTNV,≤ 0.2
18,HVVS,≤ 0.2
19,RYGV,≤ 0.2
20,IAGL,≤ 0.2
21,RNMC,0.745
22,MITW,≤ 0.2
23,RFLL,≤ 0.2
24,CSRV,≤ 0.2

row,Variant,one-hybrid fitness for binding parS DNA
1,TQYS,≤ 0.2
2,RPMT,≤ 0.2
3,LNAP,≤ 0.2
4,RSWE,≤ 0.2
5,PPWD,≤ 0.2
6,PRAN,≤ 0.2
7,NRLF,≤ 0.2
8,RMSN,0.449
9,STLA,≤ 0.2
10,LDRL,≤ 0.2
11,QLKN,≤ 0.2
12,RLHY,0.473
13,WCSG,≤ 0.2
14,TAHT,≤ 0.2
15,KNKF,0.221
16,GMNC,≤ 0.2
17,LGPI,≤ 0.2
18,KPSQ,≤ 0.2
19,VCKL,≤ 0.2
20,TQVG,≤ 0.2
21,NDWR,≤ 0.2
22,FRRA,≤ 0.2
23,CPRD,≤ 0.2
24,RCRN,0.387

row,Variant,one-hybrid fitness for binding parS DNA
1,HFAA,≤ 0.2
2,TQSH,≤ 0.2
3,AAPG,≤ 0.2
4,TWTW,≤ 0.2
5,IDSA,≤ 0.2
6,TACG,≤ 0.2
7,PRFW,≤ 0.2
8,YKYR,≤ 0.2
9,LRQR,≤ 0.2
10,IESR,≤ 0.2
11,QHLC,≤ 0.2
12,PNFI,≤ 0.2
13,PDYT,≤ 0.2
14,IRHN,≤ 0.2
15,YAAC,≤ 0.2
16,EMNR,≤ 0.2
17,SKSC,≤ 0.2
18,EEGT,≤ 0.2
19,NERS,≤ 0.2
20,RFMW,0.208
21,GIYG,≤ 0.2
22,CADC,≤ 0.2
23,LCPN,≤ 0.2
24,SSDC,≤ 0.2

row,Variant,one-hybrid fitness for binding parS DNA
1,RKVR,≤ 0.2
2,RCYL,≤ 0.2
3,TRLI,≤ 0.2
4,WIRL,≤ 0.2
5,WYKL,≤ 0.2
6,LLEL,≤ 0.2
7,HGWW,≤ 0.2
8,DQDC,≤ 0.2
9,NAIT,≤ 0.2
10,SYHI,≤ 0.2
11,ASRH,≤ 0.2
12,IQME,≤ 0.2
13,SPAP,≤ 0.2
14,WVMC,≤ 0.2
15,VEYS,≤ 0.2
16,NVIG,≤ 0.2
17,RWRQ,≤ 0.2
18,VRCC,≤ 0.2
19,NRHC,≤ 0.2
20,GQKN,≤ 0.2
21,QSKT,≤ 0.2
22,DMSV,≤ 0.2
23,KLSG,≤ 0.2
24,DKTV,≤ 0.2

row,Variant,one-hybrid fitness for binding parS DNA
1,DREC,≤ 0.2
2,CVDG,≤ 0.2
3,GTAL,≤ 0.2
4,NSRV,≤ 0.2
5,IEPE,≤ 0.2
6,HTEM,≤ 0.2
7,NSNR,≤ 0.2
8,QPRQ,≤ 0.2
9,HETW,≤ 0.2
10,LAGL,≤ 0.2
11,AWSC,≤ 0.2
12,CIES,≤ 0.2
13,QKTS,≤ 0.2
14,HNIL,≤ 0.2
15,LIAY,≤ 0.2
16,MPSF,≤ 0.2
17,GYIM,≤ 0.2
18,PTPV,≤ 0.2
19,FQVS,≤ 0.2
20,WCPC,≤ 0.2
21,RCTR,≤ 0.2
22,NCNR,≤ 0.2
23,LVEF,≤ 0.2
24,KKLV,≤ 0.2

row,Variant,one-hybrid fitness for binding parS DNA
1,CTHR,≤ 0.2
2,EDVG,≤ 0.2
3,KVFG,≤ 0.2
4,KCSE,≤ 0.2
5,KYLC,≤ 0.2
6,ASTG,≤ 0.2
7,VHLR,≤ 0.2
8,RILS,1.04
9,LMEG,≤ 0.2
10,MGRH,≤ 0.2
11,TRPY,≤ 0.2
12,YYPR,≤ 0.2
13,WTGS,≤ 0.2
14,EAYN,≤ 0.2
15,QRYD,≤ 0.2
16,YVYS,≤ 0.2
17,MTGA,≤ 0.2
18,HHIR,≤ 0.2
19,DRNY,≤ 0.2
20,WFGC,≤ 0.2
21,HISY,≤ 0.2
22,PWQK,≤ 0.2
23,LTKL,≤ 0.2
24,PDHF,≤ 0.2

row,Variant,one-hybrid fitness for binding parS DNA
1,ETMS,≤ 0.2
2,AFGG,≤ 0.2
3,SQAF,≤ 0.2
4,DQKV,≤ 0.2
5,SCHA,≤ 0.2
6,QSYS,≤ 0.2
7,ATTM,≤ 0.2
8,QCPL,≤ 0.2
9,KSTE,≤ 0.2
10,SGQR,≤ 0.2
11,KPVS,≤ 0.2
12,WFHR,≤ 0.2
13,RAWW,0.26
14,RTNL,≤ 0.2
15,TCNS,≤ 0.2
16,PSSL,≤ 0.2
17,SSRW,≤ 0.2
18,SSTY,≤ 0.2
